# The supplement of paper PMC8728848
# Some of the results follow.
# B1: Angptl4 (Homo sapiens), Q9BY76 (protein)
# chain: MSGAPTAGAALMLCAATAVLLSAQGGPVQSKSPRFASWDEMNVLAHGLLQLGQGLREHAERTRSQLSALERRLSACGSACQGTEGSTDLPLAPESRVDPEVLHSLQTQLKAQNSRIQQLFHKVAQQQRHLEKQHLRIQHLQSQFGLLDHKHLDHEVAKPARRKRLPEMAQPVDPAHNVSRLHRLPRDCQELFQVGERQSGLFEIQPQGSPPFLVNCKMTSDGGWTVIQRRHDGSVDFNRPWEAYKAGFGDPHGEFWLGLEKVHSITGDRNSRLAVQLRDWDGNAELLQFSVHLGGEDTAYSLQLTAPVAGQLGATTVPPSGLSVPFSTWDQDHDLRRDKNCAKSLSGGWWFGTCSHSNLNGQYFRSIPQQRQKLKKGIFWKTWRGRYYPLQATTMLIQPMAAEAAS
# Tests used:
# Test in all cases: glycan array binding signal (z-score within array); higher = stronger binding
# Settings in all cases: glycan notation: IUPAC condensed, linker removed
# [1] = biological target: Gal3S(b1-4)GlcNAc6S
# Outline: (§1)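 Columns mapping to the same glycan were averaged after glycan names were converted to IUPAC-condensed notation. The data come from 3228 arrays in the Consortium for Functional Glycomics database, limited to those with an available protein sequence. Binding is reported as a within-array Z-score averaged across arrays of one protein sequence and across linkers.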
# [2] = biological target: Gal3S(b1-4)[Fuc(a1-3)]Glc
# Outline: as §1
# [3] = biological target: Gal3S4S(b1-4)GlcNAc
# Outline: as §1
# [4] = biological target: Gal3S6S(b1-4)GlcNAc
# Outline: as §1
# [5] = biological target: Gal3S6S(b1-4)GlcNAc6S
# Outline: as §1
# [6] = biological target: Gal4S(b1-4)GlcNAc
# Outline: as §1
# [7] = biological target: Gal4S6S(b1-4)GlcNAc
# Outline: as §1
# [8] = biological target: Gal6S(b1-4)Glc
# Outline: as §1
# [9] = biological target: Gal6S(b1-4)Glc6S
# Outline: as §1
# [10] = biological target: Gal6S(b1-4)GlcNAc
# Outline: as §1
# [11] = biological target: Gal6S(b1-4)GlcNAc6S
# Outline: as §1
# [12] = biological target: GalNAc(a1-3)Gal
# Outline: as §1
# [13] = biological target: GalNAc(a1-3)GalNAc
# Outline: as §1
# [14] = biological target: GalNAc(b1-3)Gal
# Outline: as §1
# [15] = biological target: GalNAc(b1-3)Gal(a1-4)Gal(b1-4)GlcNAc
# Outline: as §1
# [16] = biological target: GalNAc(b1-3)GalNAc
# Outline: as §1
# [17] = biological target: GalNAc(b1-4)GlcNAc
# Outline: as §1
# [18] = biological target: Glc(a1-4)Glc
# Outline: as §1
# [19] = biological target: Glc(a1-6)Glc(a1-6)Glc
# Outline: as §1
# [20] = biological target: Glc(b1-4)Glc
# Outline: as §1
# [21] = biological target: Glc(b1-6)Glc
# Outline: as §1
# [22] = biological target: GlcA(b1-3)Gal
# Outline: as §1
# [23] = biological target: GlcA(b1-3)GlcNAc
# Outline: as §1
# [24] = biological target: GlcA(b1-6)Gal
# Outline: as §1
# [25] = biological target: GlcNAc(a1-3)Gal(b1-4)GlcNAc
# Outline: as §1
# [26] = biological target: GlcNAc(a1-6)Gal(b1-4)GlcNAc
# Outline: as §1
# [27] = biological target: GlcNAc(b1-2)Gal(b1-3)GalNAc
# Outline: as §1
# [28] = biological target: GlcNAc(b1-2)Man(a1-3)[GlcNAc(b1-2)Man(a1-6)]Man(b1-4)GlcNAc(b1-4)GlcNAc
# Outline: as §1
# [29] = biological target: GlcNAc(b1-3)Gal
# Outline: as §1
# [30] = biological target: GlcNAc(b1-3)Gal(b1-3)GalNAc
# Outline: as §1
# [31] = biological target: GlcNAc(b1-3)Gal(b1-4)Glc
# Outline: as §1
# [32] = biological target: GlcNAc(b1-3)Gal(b1-4)GlcNAc
# Outline: as §1
# [33] = biological target: GlcNAc(b1-3)Gal(b1-4)GlcNAc(b1-3)Gal(b1-4)GlcNAc
# Outline: as §1
# [34] = biological target: GlcNAc(b1-3)GalNAc
# Outline: as §1
# [35] = biological target: GlcNAc(b1-3)Man
# Outline: as §1
# [36] = biological target: GlcNAc(b1-3)[GlcNAc(b1-4)][GlcNAc(b1-6)]GlcNAc
# Outline: as §1
# [37] = biological target: GlcNAc(b1-3)[GlcNAc(b1-6)]Gal(b1-4)GlcNAc
# Outline: as §1
# [38] = biological target: GlcNAc(b1-3)[GlcNAc(b1-6)]GalNAc
# Outline: as §1
# [39] = biological target: GlcNAc(b1-4)Gal(b1-4)GlcNAc
# Outline: as §1
# [40] = biological target: GlcNAc(b1-4)GlcNAc
# Outline: as §1
# [41] = biological target: GlcNAc(b1-4)GlcNAc(b1-4)GlcNAc
# Outline: as §1
# [42] = biological target: GlcNAc(b1-4)GlcNAc(b1-4)GlcNAc(b1-4)GlcNAc(b1-4)GlcNAc
# Outline: as §1
# [43] = biological target: GlcNAc(b1-4)GlcNAc(b1-4)GlcNAc(b1-4)GlcNAc(b1-4)GlcNAc(b1-4)GlcNAc
# Outline: as §1
# [44] = biological target: GlcNAc(b1-4)[GlcNAc(b1-6)]GalNAc
# Outline: as §1
# [45] = biological target: GlcNAc(b1-6)Gal(b1-4)GlcNAc
# Outline: as §1
# [46] = biological target: GlcNAc(b1-6)GalNAc
# Outline: as §1
# [47] = biological target: GlcNAc3Prop(b1-4)GlcNAc
# Outline: as §1
# [48] = biological target: Kdn(a2-3)Gal(b1-3)GlcNAc
# Outline: as §1
# [49] = biological target: Kdn(a2-3)Gal(b1-4)GlcNAc
# Outline: as §1
# [50] = biological target: Man(a1-2)Man(a1-2)Man(a1-3)Man
# Outline: as §1
# [51] = biological target: Man(a1-2)Man(a1-2)Man(a1-6)[Man(a1-3)]Man
# Outline: as §1
# [52] = biological target: Man(a1-2)Man(a1-3)Man
# Outline: as §1
# [53] = biological target: Man(a1-2)Man(a1-3)[Man(a1-2)Man(a1-6)]Man
# Outline: as §1
# [54] = biological target: Man(a1-2)Man(a1-3)[Man(a1-2)Man(a1-6)]Man(a1-6)[Man(a1-2)Man(a1-2)Man(a1-3)]Man
# Outline: as §1
# [55] = biological target: Man(a1-2)Man(a1-3)[Man(a1-2)Man(a1-6)]Man(a1-6)[Man(a1-2)Man(a1-2)Man(a1-3)]Man(b1-4)GlcNAc(b1-4)GlcNAc
# Outline: as §1
# [56] = biological target: Man(a1-2)Man(a1-3)[Man(a1-6)]Man(a1-6)[Man(a1-2)Man(a1-3)]Man(b1-4)GlcNAc(b1-4)GlcNAc
# Outline: as §1
# [57] = biological target: Man(a1-2)Man(a1-6)[Man(a1-3)]Man(a1-6)[Man(a1-2)Man(a1-2)Man(a1-3)]Man
# Outline: as §1
# [58] = biological target: Man(a1-2)Man(a1-6)[Man(a1-3)]Man(a1-6)[Man(a1-2)Man(a1-2)Man(a1-3)]Man(b1-4)GlcNAc(b1-4)GlcNAc
# Outline: as §1
# [59] = biological target: Man(a1-3)[Man(a1-6)]Man
# Outline: as §1
# [60] = biological target: Man(a1-3)[Man(a1-6)]Man(a1-6)[Man(a1-2)Man(a1-3)]Man(b1-4)GlcNAc(b1-4)GlcNAc
# Outline: as §1
# [61] = biological target: Man(a1-3)[Man(a1-6)]Man(a1-6)[Man(a1-3)]Man
# Outline: as §1
# [62] = biological target: Man(a1-3)[Man(a1-6)]Man(a1-6)[Man(a1-3)]Man(b1-4)GlcNAc(b1-4)GlcNAc
# Outline: as §1
# [63] = biological target: Man(a1-3)[Man(a1-6)]Man(b1-4)GlcNAc(b1-4)GlcNAc
# Outline: as §1
# [64] = biological target: Man(a1-6)Man
# Outline: as §1
# [65] = biological target: Man(b1-4)GlcNAc
# Outline: as §1
# [66] = biological target: Neu5Ac(a2-3)Gal
# Outline: as §1
# [67] = biological target: Neu5Ac(a2-3)Gal(b1-3)GalNAc
# Outline: as §1
# [68] = biological target: Neu5Ac(a2-3)Gal(b1-3)GalNAc(b1-3)Gal(a1-4)Gal(b1-4)Glc
# Outline: as §1
# [69] = biological target: Neu5Ac(a2-3)Gal(b1-3)GalNAc(b1-3)Gal(b1-4)GlcNAc
# Outline: as §1
# [70] = biological target: Neu5Ac(a2-3)Gal(b1-3)GalNAc(b1-4)[Neu5Ac(a2-3)]Gal(b1-4)Glc
# Outline: as §1
# [71] = biological target: Neu5Ac(a2-3)Gal(b1-3)GalNAc6S
# Outline: as §1
# [72] = biological target: Neu5Ac(a2-3)Gal(b1-3)GlcNAc
# Outline: as §1
# [73] = biological target: Neu5Ac(a2-3)Gal(b1-3)GlcNAc(b1-3)Gal(b1-3)GlcNAc
# Outline: as §1
# [74] = biological target: Neu5Ac(a2-3)Gal(b1-3)GlcNAc6S
# Outline: as §1
# [75] = biological target: Neu5Ac(a2-3)Gal(b1-3)[Fuc(a1-4)]GlcNAc
# Outline: as §1
binder,measurement,setting,value
B1,glycan array binding signal (z-score),[1],-0.389
same,glycan array binding signal (z-score),[2],0.244
same,glycan array binding signal (z-score),[3],0.09
same,glycan array binding signal (z-score),[4],-0.864
same,glycan array binding signal (z-score),[5],-0.381
same,glycan array binding signal (z-score),[6],0.045
same,glycan array binding signal (z-score),[7],-0.563
same,glycan array binding signal (z-score),[8],-0.472
same,glycan array binding signal (z-score),[9],0.146
same,glycan array binding signal (z-score),[10],-0.204
same,glycan array binding signal (z-score),[11],-0.657
same,glycan array binding signal (z-score),[12],0.105
same,glycan array binding signal (z-score),[13],-0.009
same,glycan array binding signal (z-score),[14],-0.523
same,glycan array binding signal (z-score),[15],0.337
same,glycan array binding signal (z-score),[16],1.04
same,glycan array binding signal (z-score),[17],-0.398
same,glycan array binding signal (z-score),[18],-0.014
same,glycan array binding signal (z-score),[19],-0.589
same,glycan array binding signal (z-score),[20],-0.685
same,glycan array binding signal (z-score),[21],0.796
same,glycan array binding signal (z-score),[22],0.445
same,glycan array binding signal (z-score),[23],0.314
same,glycan array binding signal (z-score),[24],0.139
same,glycan array binding signal (z-score),[25],-0.425
same,glycan array binding signal (z-score),[26],-0.397
same,glycan array binding signal (z-score),[27],-0.021
same,glycan array binding signal (z-score),[28],-0.215
same,glycan array binding signal (z-score),[29],0.068
same,glycan array binding signal (z-score),[30],-0.42
same,glycan array binding signal (z-score),[31],2.64
same,glycan array binding signal (z-score),[32],-0.299
same,glycan array binding signal (z-score),[33],0.334
same,glycan array binding signal (z-score),[34],-0.508
same,glycan array binding signal (z-score),[35],-0.415
same,glycan array binding signal (z-score),[36],-0.234
same,glycan array binding signal (z-score),[37],0.501
same,glycan array binding signal (z-score),[38],-0.268
same,glycan array binding signal (z-score),[39],-0.264
same,glycan array binding signal (z-score),[40],-0.525
same,glycan array binding signal (z-score),[41],-0.25
same,glycan array binding signal (z-score),[42],2.2
same,glycan array binding signal (z-score),[43],1.43
same,glycan array binding signal (z-score),[44],-0.311
same,glycan array binding signal (z-score),[45],-0.277
same,glycan array binding signal (z-score),[46],0.299
same,glycan array binding signal (z-score),[47],-0.326
same,glycan array binding signal (z-score),[48],0.691
same,glycan array binding signal (z-score),[49],-0.145
same,glycan array binding signal (z-score),[50],-0.655
same,glycan array binding signal (z-score),[51],-0.229
same,glycan array binding signal (z-score),[52],-0.081
same,glycan array binding signal (z-score),[53],-0.525
same,glycan array binding signal (z-score),[54],-0.291
same,glycan array binding signal (z-score),[55],3
same,glycan array binding signal (z-score),[56],-0.165
same,glycan array binding signal (z-score),[57],0.303
same,glycan array binding signal (z-score),[58],-0.471
same,glycan array binding signal (z-score),[59],-0.048
same,glycan array binding signal (z-score),[60],5.32
same,glycan array binding signal (z-score),[61],-0.212
same,glycan array binding signal (z-score),[62],0.001
same,glycan array binding signal (z-score),[63],-0.118
same,glycan array binding signal (z-score),[64],0.013
same,glycan array binding signal (z-score),[65],-0.486
same,glycan array binding signal (z-score),[66],-0.218
same,glycan array binding signal (z-score),[67],-0.334
same,glycan array binding signal (z-score),[68],-0.626
same,glycan array binding signal (z-score),[69],0.083
same,glycan array binding signal (z-score),[70],-0.37
same,glycan array binding signal (z-score),[71],-0.74
same,glycan array binding signal (z-score),[72],0.89
same,glycan array binding signal (z-score),[73],-0.555
same,glycan array binding signal (z-score),[74],7.07
same,glycan array binding signal (z-score),[75],-0.272
